# In PubChem BioAssay AID504333 (National Center for Advancing Translational Sciences (NCATS), 2011):
# Among all 360,000 compounds or so, about 16,000 (4.4%) were called active. The shares of active, inactive and inconclusive entries below differ from those in the screen. Calls follow the shape of the dose curve; as a rule, active = well fitted inhibition curve with a large enough effect; inconclusive = small, poorly fitted or top-dose-only effect; inactive = no such curve, though single readings can be large or run the other way. Where the call is inconclusive, the potency comes from a doubtful curve fit.
# Target: Bromodomain adjacent to zinc finger domain protein 2B (Homo sapiens) (UniProt Q9UIF8)
# Chain of UniProt Q9UIF8 (Q9UIF8 whole entry, looked up, the tested form may be a part): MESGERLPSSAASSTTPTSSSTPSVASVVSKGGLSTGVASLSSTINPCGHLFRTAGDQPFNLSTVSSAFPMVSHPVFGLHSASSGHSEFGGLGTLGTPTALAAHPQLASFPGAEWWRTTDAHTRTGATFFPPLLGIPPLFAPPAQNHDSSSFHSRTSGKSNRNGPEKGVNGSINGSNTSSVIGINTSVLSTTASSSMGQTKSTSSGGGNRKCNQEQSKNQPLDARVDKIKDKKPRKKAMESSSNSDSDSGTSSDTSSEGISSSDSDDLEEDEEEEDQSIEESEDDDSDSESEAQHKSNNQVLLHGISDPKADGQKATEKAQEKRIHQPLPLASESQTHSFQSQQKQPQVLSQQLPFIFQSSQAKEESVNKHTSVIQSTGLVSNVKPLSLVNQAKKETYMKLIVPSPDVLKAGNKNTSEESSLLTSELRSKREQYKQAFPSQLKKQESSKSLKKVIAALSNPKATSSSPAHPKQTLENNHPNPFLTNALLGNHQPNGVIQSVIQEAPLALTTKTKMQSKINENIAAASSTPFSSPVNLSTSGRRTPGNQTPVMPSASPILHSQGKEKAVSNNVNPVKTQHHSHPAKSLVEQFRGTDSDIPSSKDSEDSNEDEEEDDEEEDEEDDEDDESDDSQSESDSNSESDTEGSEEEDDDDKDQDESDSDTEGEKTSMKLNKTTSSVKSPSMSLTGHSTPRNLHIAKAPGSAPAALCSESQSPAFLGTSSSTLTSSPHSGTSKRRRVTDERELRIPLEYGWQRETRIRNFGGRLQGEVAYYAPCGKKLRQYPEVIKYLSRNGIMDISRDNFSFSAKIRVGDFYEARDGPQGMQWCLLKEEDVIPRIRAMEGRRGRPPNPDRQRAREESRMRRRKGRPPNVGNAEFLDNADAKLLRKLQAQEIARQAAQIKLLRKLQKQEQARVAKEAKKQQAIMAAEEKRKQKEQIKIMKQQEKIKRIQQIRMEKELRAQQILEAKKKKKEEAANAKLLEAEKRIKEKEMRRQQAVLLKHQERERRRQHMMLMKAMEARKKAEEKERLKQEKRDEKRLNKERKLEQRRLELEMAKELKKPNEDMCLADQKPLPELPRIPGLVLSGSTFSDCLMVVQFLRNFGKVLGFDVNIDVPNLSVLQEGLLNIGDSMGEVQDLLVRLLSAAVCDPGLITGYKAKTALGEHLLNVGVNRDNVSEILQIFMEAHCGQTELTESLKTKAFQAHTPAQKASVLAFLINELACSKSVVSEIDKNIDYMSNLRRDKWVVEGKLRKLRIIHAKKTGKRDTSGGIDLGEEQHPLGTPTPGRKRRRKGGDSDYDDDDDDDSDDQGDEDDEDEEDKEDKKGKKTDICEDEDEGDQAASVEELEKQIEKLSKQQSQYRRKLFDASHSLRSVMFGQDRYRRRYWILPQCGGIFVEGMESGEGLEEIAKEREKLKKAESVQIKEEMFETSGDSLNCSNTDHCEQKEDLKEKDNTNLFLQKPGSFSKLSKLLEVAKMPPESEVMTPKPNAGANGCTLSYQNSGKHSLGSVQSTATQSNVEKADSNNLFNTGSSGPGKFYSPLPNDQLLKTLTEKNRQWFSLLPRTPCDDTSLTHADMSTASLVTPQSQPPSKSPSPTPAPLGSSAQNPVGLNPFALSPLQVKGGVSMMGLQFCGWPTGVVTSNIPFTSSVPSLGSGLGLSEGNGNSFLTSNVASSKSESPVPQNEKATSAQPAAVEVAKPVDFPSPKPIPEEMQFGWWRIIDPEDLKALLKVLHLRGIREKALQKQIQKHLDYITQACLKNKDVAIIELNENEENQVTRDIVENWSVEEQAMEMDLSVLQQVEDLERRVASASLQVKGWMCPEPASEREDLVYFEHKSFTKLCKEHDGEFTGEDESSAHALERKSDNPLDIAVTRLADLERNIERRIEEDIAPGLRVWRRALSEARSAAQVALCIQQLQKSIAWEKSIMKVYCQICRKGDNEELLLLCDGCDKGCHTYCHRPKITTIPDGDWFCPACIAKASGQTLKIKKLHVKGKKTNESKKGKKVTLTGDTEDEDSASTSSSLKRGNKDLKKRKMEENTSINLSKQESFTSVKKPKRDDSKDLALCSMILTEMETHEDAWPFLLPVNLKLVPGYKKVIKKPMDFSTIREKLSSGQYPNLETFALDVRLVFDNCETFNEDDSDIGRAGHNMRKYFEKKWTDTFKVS
# Assay: qHTS Assay for Inhibitors of BAZ2B; also: nearly all actives have a fitted effect of over 60% in size
# Conditions: AlphaScreen BAZ2B-H3K14Ac peptide displacement; series mostly up to 114 µM
# Method in brief: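 AlphaScreen displacement: compounds (up to 110uM) incubated 30 min at room temperature with a preformed 50 nM BAZ2B/50 nM biotinylated H3K14Ac peptide complex in PBS pH 7.4 with Tween-20. Donor and acceptor beads at 10 ug/mL final added, 20 min light-protected before reading.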
# Potency is read from the fitted curve at half-maximal effect; tags tell the direction and shape of the fitted curve.
row,Structure (SMILES),Potency
1,Cc1ccc(OCCn2cc(/C(N)=N/O)c3ccccc32)cc1C,"inconclusive: 70.8 µM [inhibitor, single point]"
2,Cc1ccc(S(=O)(=O)CC#CCOC(=O)c2ccc([N+](=O)[O-])cc2)cc1,"inconclusive: 44.7 µM [inhibitor, partial curve]"
3,O=C(COc1ccc2ccccc2c1)Nc1ccc(Cc2ccncc2)cc1,"inconclusive: 89.1 µM [inhibitor, single point]"
4,Cc1cccc(N2CCn3c2nc2c3c(=O)n(C/C=C/c3ccccc3)c(=O)n2C)c1,"inconclusive: 50.1 µM [inhibitor, partial curve]"
5,Cc1ccccc1Cn1c(=O)n(CCCC(=O)NCc2ccco2)c(=O)c2sccc21,inactive
6,COC(=O)c1ccsc1NC(=O)CN1CCN(c2ccc(F)cc2)CC1,"inconclusive: 44.7 µM [inhibitor, partial curve]"
7,COc1cc2ccccc2cc1C(=O)NC(=S)Nc1ccc(C(=O)O)cc1,active: 50.1 µM
8,Cc1cc(/C=C2/SC(=S)N(c3ccc([N+](=O)[O-])cc3)C2=O)c(C)n1-c1cccnc1,"inconclusive: 8.91 µM [inhibitor, full curve]"
9,COc1ccc(C(=O)N/C(=C/c2cccs2)C(=O)NCCCn2ccnc2)cc1OC,inactive
10,Brc1c(CSc2nncn2-c2ccccc2)nc2sccn12,inactive
11,COc1c(Cl)cc(Cl)cc1CNc1ccc(S(N)(=O)=O)cc1,inactive
12,Cc1cc(Br)ccc1NC(=O)c1sc2nc3n(c(=O)c2c1C)CCCC3,active: 17.8 µM
13,O=C(CC(c1ccccc1)c1cc(Cl)ccc1O)N1CCCC1 (configuration not stated),inactive
14,CCCCNC(=S)N/N=C1\C(=O)c2cccc3cccc1c23,"inconclusive: 70.8 µM [inhibitor, single point]"
15,COc1ccc(O[C@H]2C=C[C@@H](c3ccccc3)O[C@@H]2COC(=O)CC/C(C)=N/O[C@@H](C)c2cn([C@H](CO)Cc3ccccc3)nn2)cc1,"inconclusive: 56.2 µM [inhibitor, single point]"
16,O=S(=O)(Nc1ccc(O)c(NS(=O)(=O)c2ccccc2)c1)c1ccccc1,"inconclusive: 79.4 µM [inhibitor, single point]"
17,COc1ccc2c(c1)c(=O)c(C(=O)c1ccc(F)cc1)cn2CC(=O)Nc1ccc2c(c1)OCO2,inactive
18,COc1cc(C(=O)ON=C2C=C(C)C(=O)C(C)=C2)cc(OC)c1OC,inactive
19,COC(=O)c1c(N2C(=O)[C@H]3[C@@H](C2=O)[C@]2(C(=O)Nc4c2ccc(C)c4C)N2CCC[C@@H]32)sc(C)c1C,"inconclusive: 39.8 µM [inhibitor, partial curve]"
20,CCCCOc1ccc(Cn2c(=O)oc3ccc(C)cc32)cc1OC,inactive
21,Cc1ccc(NC(=O)c2ccc(NCC3CCCO3)c([N+](=O)[O-])c2)cc1Cl (configuration not stated),"inconclusive: 70.8 µM [inhibitor, single point]"
22,Cc1ccc([N+](=O)[O-])cc1N=Nc1c(-c2ccc([N+](=O)[O-])cc2)[nH]n(C(N)=S)c1=O,active: 31.6 µM
23,COc1ccc(C(=O)Nc2nc3n(n2)C(c2ccc(Cl)cc2)C=C(c2ccccc2)N3)cc1OC (configuration not stated),active: 28.2 µM
24,Cc1cc(C)cc(C(=O)NC(=S)Nc2ccc(Cc3ccncc3)cc2)c1,"inconclusive: 10 µM [inhibitor, full curve]"

row,Structure (SMILES),Potency
1,N#C/C(=C/c1ccncc1)c1nc2ccccc2s1,"inconclusive: 56.2 µM [inhibitor, partial curve]"
2,Cc1cc(=O)n(CNC(=O)c2ccccc2)c(=S)[nH]1,inactive
3,O=C(Nc1ccc([N+](=O)[O-])cn1)c1cc(-c2cccc(Br)c2)nc2ccccc12,inactive
4,Cc1[nH]c2ccccc2c1Cc1nnc(SCc2ccccc2)o1,"inconclusive: 89.1 µM [inhibitor, single point]"
5,O=C(CSc1nc2ccccc2c(=O)[nH]1)Nc1nc(-c2ccc(Br)cc2)cs1,active: 79.4 µM
6,C#CCOCCOCCOCCNc1nc(N2CCN(C(=O)[C@H](Cc3ccc(O)cc3)n3cc([C@@H](N)CC(C)C)nn3)CC2)nc(N2CCN(C(=O)[C@H](Cc3cc4ccccc4[nH]3)n3cc([C@@H](N)CC(C)C)nn3)CC2)n1,active: 25.1 µM
7,COc1cc([N+](=O)[O-])ccc1NC(=O)Nc1ccc2c(c1)OCCO2,"inconclusive: 17.8 µM [inhibitor, full curve]"
8,OC(COc1ccc2c(c1)OCO2)CN1CCN(c2ccc(F)cc2)CC1 (configuration not stated),"inconclusive: 56.2 µM [inhibitor, partial curve]"
9,COc1cc(/C=C2/SC(=S)N(c3c(C)n(C)n(-c4ccccc4)c3=O)C2=O)ccc1O,active: 44.7 µM
10,O=C(Nc1cccc(Cl)c1)c1cc(N=Nc2ccc([N+](=O)[O-])cc2Cl)ccc1O,active: 2.82 µM
11,C=CCn1c(C)nnc1SCC(=O)Nc1oc(C)c2c(C)n[nH]c(=O)c12,inactive
12,CCN(CC)c1cccc(OCC(=O)N2c3ccccc3CC2C)c1 (configuration not stated),"inconclusive: 39.8 µM [inhibitor, partial curve]"
13,CN(C)CCNC(=O)c1csc(Nc2cccc3ccccc23)n1,"inconclusive: 79.4 µM [inhibitor, single point]"
14,O=C(O)c1ccc(NC(CSCc2ccccc2F)C(=O)O)c([N+](=O)[O-])c1 (configuration not stated),inactive
15,COc1ccc(C(=O)NCCn2ccc3ccccc32)cc1,inactive
16,CC(/C=C/c1ccccc1)=N\NC(N)=S,"inconclusive: 44.7 µM [inhibitor, partial curve]"
17,CCC1=C/C(=C\c2ccc3c(c2)OCO3)C(=O)S1,active: 44.7 µM
18,COc1ccccc1N1CCN(c2nc(C)nc3c2oc2ccccc23)CC1,active: 50.1 µM
19,O=C(CCN1CCc2ccccc2C1)c1ccc2c(c1)OCCO2,inactive
20,CCN(CC)c1ccc(NS(=O)(=O)c2cc(-c3cc(C)no3)ccc2C)c(C)c1,active: 11.2 µM
21,O=[N+]([O-])c1ccc(-c2ccc(/C=N/c3c(-c4ccco4)nc4ccccn34)o2)c(Cl)c1,"inconclusive: 14.1 µM [inhibitor, partial curve]"
22,O=C(O)c1cc(N/N=C/c2ccc(OCc3ccccc3)cc2)ccc1Cl,"inconclusive: 50.1 µM [inhibitor, partial curve]"
23,O=C(NCC(=O)N1CCCCCC1)c1ccc(Br)cc1,inactive
24,Cc1ccccc1N1CCN(C(=S)c2ccc([N+](=O)[O-])cc2)CC1,"inconclusive: 10 µM [inhibitor, full curve]"

row,Structure (SMILES),Potency
1,Oc1ccc(CCNc2c3ccccc3nc3ccccc23)cc1O,"inconclusive: 70.8 µM [inhibitor, single point]"
2,Cc1ccc(/C=N/Nc2ccnc3cc(Cl)ccc23)c(C)c1,"inconclusive: 79.4 µM [inhibitor, single point]"
3,Cc1cc(N2C(=O)CC(N3CCN(C(c4ccccc4)c4ccccc4)CC3)C2=O)no1 (configuration not stated),"inconclusive: 79.4 µM [inhibitor, single point]"
4,Cc1c(C(=O)O)sc2nc3n(c(=O)c12)CCC3,"inconclusive: 79.4 µM [inhibitor, partial curve]"
5,Nc1ccc(Oc2ccc3c(c2)OCO3)cc1,"inconclusive: 39.8 µM [inhibitor, partial curve]"
6,CCOc1cc(/C=C2/NC(=O)N(Cc3ccccc3F)C2=O)ccc1O,inactive
7,COc1ccc(N2CCN(C(=O)c3cnn(-c4ccc(OC)cc4)c3C3CCN(C(=O)OC(C)(C)C)CC3)CC2)cc1,inactive
8,Cc1c(Cc2ccccc2)c(=O)oc2c(C)c(OCC(=O)N[C@@H](Cc3ccccc3)C(=O)O)ccc12,"inconclusive: 79.4 µM [inhibitor, single point]"
9,CCOc1ccc(NC(=O)C/C(C)=N/NC(=O)c2cnccn2)cc1,"inconclusive: 79.4 µM [inhibitor, single point]"
10,Cc1ccc(CN2CCC(Oc3cccc(C(=O)NCc4cccnc4)c3)CC2)o1,"inconclusive: 79.4 µM [inhibitor, single point]"
11,Cc1ccc(-n2ccc(=O)c(C(=O)Nc3ccc(S(=O)(=O)Nc4nccs4)cc3)n2)cc1,"inconclusive: 39.8 µM [inhibitor, single point]"
12,COc1ccccc1C(=O)NC(=S)Nc1ccc(N2CCN(C(=O)c3ccco3)CC2)cc1,"inconclusive: 7.94 µM [inhibitor, full curve]"
13,O=C(O)CCCC(=O)NCCc1cccc(Cl)c1,inactive
14,O=C(CN1C(=O)CCSc2ccccc21)Nc1ccc(C(F)(F)F)cc1,inactive
15,COc1ccc2nc(Nc3sc4c(c3C(N)=O)CCCC4)sc2c1,"inconclusive: 89.1 µM [inhibitor, single point]"
16,COc1cccc(-n2ccnc2SCC(=O)N2CCCc3ccccc32)c1,"inconclusive: 50.1 µM [inhibitor, partial curve]"
17,CC1CCN(C(=O)Cn2c(SCC(=O)Nc3ccc(F)cc3)nc3ccccc32)CC1,inactive
18,CCC(=O)Nc1cccc(NC(C)=O)c1,"inconclusive: 70.8 µM [inhibitor, single point]"
19,COc1ccc(OC)c(CNC(=O)CSc2c3c(nc4cc(Cl)ccc24)CCCC3)c1,inactive
20,C[C@H](NC(=O)c1nc[nH]c1C(=O)N1CCNCC1)C(=O)OCc1ccccc1,active: 56.2 µM
21,O=C(CSc1cn[nH]n1)Nc1nc2ccccc2s1,inactive
22,CC(C)CCN1CCN(Cc2coc3ccccc3c2=O)CC1CCO (configuration not stated),inactive
23,O=C(CCc1c[nH]c2ccccc12)NCc1ccco1,"inconclusive: 79.4 µM [inhibitor, single point]"
24,N#CC1=C(N)N(c2ccccc2Sc2ccccc2)C(=O)C1,"inconclusive: 89.1 µM [inhibitor, single point]"
